From the BET-seq Pho4 binding data (Le et al. 2018) come the findings set out here.

This is one part of the list. The energies were worked out here from pooled read counts, against the library average; single values are noisy.

The target of this assay is T1, Pho4 (S. cerevisiae) (UniProt P07270).
T1 sequence: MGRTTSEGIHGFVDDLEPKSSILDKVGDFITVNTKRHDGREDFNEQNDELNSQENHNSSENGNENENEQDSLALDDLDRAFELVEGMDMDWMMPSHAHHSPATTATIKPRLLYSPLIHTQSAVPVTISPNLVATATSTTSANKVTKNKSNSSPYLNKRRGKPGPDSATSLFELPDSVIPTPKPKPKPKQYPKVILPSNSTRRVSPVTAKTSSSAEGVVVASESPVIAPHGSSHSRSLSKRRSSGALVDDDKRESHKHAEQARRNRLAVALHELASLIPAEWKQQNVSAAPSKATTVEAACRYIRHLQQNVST
The experiment in a line: relative binding free energy (BET-seq); higher = weaker binding. To be noted: reference: library average.
For GTTAGCACGTGTGTTG, the “relative binding free energy” value is -0.03 kcal/mol.

As to ATAGTCACGTGTGGAA, the “relative binding free energy” value came out at 0.11 kcal/mol.

Regarding GTGCTCACGTGGTGAG, the “relative binding free energy” value is 0.28 kcal/mol.

Regarding GGCGTCACGTGGGCTG, the “relative binding free energy” value was -0.09 kcal/mol.

On to TTGTTCACGTGTGCGT, for which the “relative binding free energy” value worked out at 0.18 kcal/mol.

As to TGGCGCACGTGGAGGG, the “relative binding free energy” value was -0.22 kcal/mol.

Regarding TGTGTCACGTGGCGCA, the “relative binding free energy” value was -0.04 kcal/mol.

Regarding TAGGGCACGTGACGTA, the “relative binding free energy” value was -0.2 kcal/mol.

AGCGACACGTGTTGGG: the “relative binding free energy” value is -0.03 kcal/mol.

For the sequence ATCATCACGTGCAGGT, the “relative binding free energy” value stood at 0.29 kcal/mol.

With AAGATCACGTGAAGGG, the “relative binding free energy” value stood at 0.23 kcal/mol.

For the sequence TGTTGCACGTGGACGA, the “relative binding free energy” value is -0.01 kcal/mol.

Consider ACATGCACGTGTGTGG, for which the “relative binding free energy” value stood at 0 kcal/mol.

For the sequence AGGGGCACGTGGGAGT, the “relative binding free energy” value is -0.15 kcal/mol.

As to TTGTTCACGTGGAGGC, the “relative binding free energy” value was 0.25 kcal/mol.

Regarding TTAAACACGTGTTTCG, the “relative binding free energy” value was -0.13 kcal/mol.

Turning to AATTTCACGTGTGAGA, the “relative binding free energy” value was found to be 0.38 kcal/mol.

AGGTACACGTGATGGC: the “relative binding free energy” value was 0.19 kcal/mol.

Consider TCGTACACGTGGGGAA, for which the “relative binding free energy” value was -0.02 kcal/mol.

On to ATGCTCACGTGGTAAT, for which the “relative binding free energy” value is 0.28 kcal/mol.

Consider TTTGGCACGTGTATAA, for which the “relative binding free energy” value is -0.08 kcal/mol.

On to GACTTCACGTGGTGTT, for which the “relative binding free energy” value was 0.2 kcal/mol.

For the sequence TGCTGCACGTGATATG, the “relative binding free energy” value amounted to 0.04 kcal/mol.

Regarding CGGTTCACGTGTTGAG, the “relative binding free energy” value worked out at 0.13 kcal/mol.

Take AATAACACGTGATGGT: the “relative binding free energy” value came to 0.17 kcal/mol.

As to ATCATCACGTGGTGGG, the “relative binding free energy” value worked out at 0.12 kcal/mol.

TTAAGCACGTGCGTTA: the “relative binding free energy” value was -0.18 kcal/mol.

Turning to AGGTGCACGTGGCGGA, the “relative binding free energy” value was -0.07 kcal/mol.

Turning to GGGTTCACGTGTTCTG, the “relative binding free energy” value was 0.27 kcal/mol.

On to CGGGGCACGTGTAGGC, for which the “relative binding free energy” value is -0.09 kcal/mol.

For ATGTCCACGTGTTGGA, the “relative binding free energy” value was -0.03 kcal/mol.

Regarding ATTAGCACGTGGGATC, the “relative binding free energy” value is -0.17 kcal/mol.

In the case of TGGCACACGTGAAGGG, the “relative binding free energy” value stood at 0.29 kcal/mol.

For the sequence TTATCCACGTGGAGGG, the “relative binding free energy” value was -0.02 kcal/mol.

Consider ATTTCCACGTGGTCGT, for which the “relative binding free energy” value was -0.08 kcal/mol.

TTATTCACGTGGAGTT: the “relative binding free energy” value came out at 0.31 kcal/mol.

Regarding TGGTACACGTGGGGCG, the “relative binding free energy” value is -0.01 kcal/mol.

As for ACTGTCACGTGGTGAT, the “relative binding free energy” value was -0.07 kcal/mol.

With AGGTTCACGTGTCTGG, the “relative binding free energy” value was found to be 0.24 kcal/mol.

As for GGTTTCACGTGATATA, the “relative binding free energy” value stood at 0.27 kcal/mol.

Consider ACGGGCACGTGTAGAT, for which the “relative binding free energy” value came out at 0.16 kcal/mol.

As for CTGTGCACGTGCGTGG, the “relative binding free energy” value is -0.15 kcal/mol.

Take ATTTGCACGTGAAGAG: the “relative binding free energy” value was 0.16 kcal/mol.

Turning to TTGCGCACGTGGAAGA, the “relative binding free energy” value is 0.12 kcal/mol.

Take TGGTGCACGTGAACTA: the “relative binding free energy” value worked out at 0.32 kcal/mol.

On to GGTATCACGTGGCATT, for which the “relative binding free energy” value stood at 0 kcal/mol.

Regarding TTCGTCACGTGTTGAG, the “relative binding free energy” value worked out at 0.07 kcal/mol.

With ACTCTCACGTGGGGTG, the “relative binding free energy” value was found to be 0.16 kcal/mol.

TTCTGCACGTGTTTAT: the “relative binding free energy” value is -0.04 kcal/mol.

ACGGCCACGTGGTTGG: the “relative binding free energy” value was -0.06 kcal/mol.

In the case of TTGTTCACGTGCAGTC, the “relative binding free energy” value turned out to be 0.33 kcal/mol.

Regarding CTTAGCACGTGGCGTG, the “relative binding free energy” value is -0.17 kcal/mol.

As for ATATTCACGTGTCATA, the “relative binding free energy” value was determined as 0.21 kcal/mol.

As for TCGCGCACGTGTTAGG, the “relative binding free energy” value is -0.02 kcal/mol.

For CGAAACACGTGGGGTT, the “relative binding free energy” value is -0.14 kcal/mol.

TTAGGCACGTGTTTAG: the “relative binding free energy” value was -0.2 kcal/mol.

GTTTGCACGTGGTCTC: the “relative binding free energy” value was determined as 0.08 kcal/mol.

With CGGTTCACGTGGGGCC, the “relative binding free energy” value came to 0.19 kcal/mol.

As for GGCCGCACGTGGGAGT, the “relative binding free energy” value was -0.12 kcal/mol.

Regarding TTGGCCACGTGAATGG, the “relative binding free energy” value came to 0.15 kcal/mol.

In the case of TGTCACACGTGTTAGA, the “relative binding free energy” value was determined as 0.24 kcal/mol.

Regarding GCTTGCACGTGATTGT, the “relative binding free energy” value amounted to 0.14 kcal/mol.

Consider AAATTCACGTGCGGTT, for which the “relative binding free energy” value worked out at 0.29 kcal/mol.

AGTCGCACGTGTATGG: the “relative binding free energy” value was -0.02 kcal/mol.

For AGTATCACGTGTTGAT, the “relative binding free energy” value was 0.17 kcal/mol.

Consider TTTCTCACGTGTGTTT, for which the “relative binding free energy” value turned out to be 0.2 kcal/mol.

On to AGTGACACGTGGGGAC, for which the “relative binding free energy” value is -0.22 kcal/mol.

As to CGCGGCACGTGTTGGT, the “relative binding free energy” value was -0.11 kcal/mol.

Turning to AAAGTCACGTGGGACT, the “relative binding free energy” value was 0.22 kcal/mol.

Take AGCAACACGTGTTGGT: the “relative binding free energy” value stood at 0 kcal/mol.

For CGTATCACGTGTAGGA, the “relative binding free energy” value was found to be 0.07 kcal/mol.

ATATTCACGTGGTGTG: the “relative binding free energy” value was 0.03 kcal/mol.

For GGGGGCACGTGGACGA, the “relative binding free energy” value was -0.14 kcal/mol.

For the sequence TCGTCCACGTGATGGG, the “relative binding free energy” value is 0.16 kcal/mol.

As for TTGTTCACGTGACGAA, the “relative binding free energy” value stood at 0.26 kcal/mol.

AGTGTCACGTGTTCGA: the “relative binding free energy” value worked out at 0.06 kcal/mol.

Consider TGGGTCACGTGTCGCG, for which the “relative binding free energy” value turned out to be 0.08 kcal/mol.

With ATGTACACGTGTTTCT, the “relative binding free energy” value worked out at 0.05 kcal/mol.

Consider GGGTTCACGTGCGCGT, for which the “relative binding free energy” value was 0.28 kcal/mol.

On to GCCTGCACGTGAGGGG, for which the “relative binding free energy” value worked out at 0.17 kcal/mol.

As to TGTGTCACGTGAAGTT, the “relative binding free energy” value is 0.26 kcal/mol.

Consider TTCGACACGTGGTAGG, for which the “relative binding free energy” value was determined as 0.02 kcal/mol.

Regarding TGTGGCACGTGGCTAA, the “relative binding free energy” value is -0.34 kcal/mol.

In the case of GGGGGCACGTGGTCTT, the “relative binding free energy” value was -0.18 kcal/mol.

For CTGTTCACGTGGTATT, the “relative binding free energy” value turned out to be 0.17 kcal/mol.

As to AAGGGCACGTGGATTA, the “relative binding free energy” value is -0.13 kcal/mol.

Consider TCAGACACGTGGGGGG, for which the “relative binding free energy” value is -0.17 kcal/mol.

Turning to TGGATCACGTGGGCAA, the “relative binding free energy” value was -0.04 kcal/mol.

Turning to GTGCACACGTGATGGT, the “relative binding free energy” value came to 0.1 kcal/mol.

In the case of TTTGACACGTGAGGTA, the “relative binding free energy” value stood at 0.24 kcal/mol.

Take GGGTACACGTGGTTTA: the “relative binding free energy” value was determined as 0.19 kcal/mol.

Consider CATGTCACGTGGGGTG, for which the “relative binding free energy” value is -0.03 kcal/mol.

As to GAGGACACGTGCGGGG, the “relative binding free energy” value amounted to 0.03 kcal/mol.

Take TCAAGCACGTGGAGGT: the “relative binding free energy” value was -0.03 kcal/mol.

For AAGTGCACGTGTACGT, the “relative binding free energy” value worked out at 0 kcal/mol.

On to AGTTACACGTGTTCTA, for which the “relative binding free energy” value stood at 0.29 kcal/mol.

For the sequence TGGTGCACGTGGTCGT, the “relative binding free energy” value is -0.08 kcal/mol.

In the case of GGAGGCACGTGGAAAG, the “relative binding free energy” value was -0.02 kcal/mol.

As to TGTTTCACGTGCTCAT, the “relative binding free energy” value was determined as 0.15 kcal/mol.

Turning to ATAAGCACGTGTGTAG, the “relative binding free energy” value was -0.1 kcal/mol.

Turning to GCCATCACGTGTGGTG, the “relative binding free energy” value stood at 0.24 kcal/mol.

In the case of AATGACACGTGTGGGC, the “relative binding free energy” value is 0.13 kcal/mol.

With CGGCACACGTGGTGAT, the “relative binding free energy” value was determined as 0.09 kcal/mol.

In the case of TATGACACGTGCGTGT, the “relative binding free energy” value was -0.05 kcal/mol.

Consider GTGTGCACGTGCAACG, for which the “relative binding free energy” value was determined as 0.19 kcal/mol.

As to GTTGTCACGTGCGAGT, the “relative binding free energy” value was 0.09 kcal/mol.

As for GAAGGCACGTGTTCGT, the “relative binding free energy” value is -0.04 kcal/mol.

Regarding CGTATCACGTGTGGGC, the “relative binding free energy” value was 0.13 kcal/mol.

For the sequence GAGGCCACGTGGTTGT, the “relative binding free energy” value was -0.12 kcal/mol.

For AGGGACACGTGGTTGA, the “relative binding free energy” value is -0.04 kcal/mol.

In the case of CGCCACACGTGGGGGG, the “relative binding free energy” value was -0.14 kcal/mol.

On to CAAGGCACGTGGTAAG, for which the “relative binding free energy” value was -0.15 kcal/mol.

Regarding TCGTTCACGTGGCTGA, the “relative binding free energy” value was 0.36 kcal/mol.

With GGAAGCACGTGATGTC, the “relative binding free energy” value was determined as 0.13 kcal/mol.

For the sequence AGCAGCACGTGTGGGG, the “relative binding free energy” value was -0.17 kcal/mol.
